Experimental data published in publication PMC4336329 (PLoS ONE, 2015).
Hit rate of the full screen: of about 310,000 compounds, about 2,200 (0.71%) showed an effect of 50% or more. Effects have a minus sign here. This is one part of the list. Where a SMILES comes first, the peptide text is derived from it. The star is where a group is joined. Cbz = O=C(OCc1ccccc1)*

target: human ether-à-go-go-related gene (hERG) potassium channel (human, UniProt Q12809); assay: primary screen, population patch clamp on CHO cells stably expressing hERG
Sequence (Q12809 whole entry, looked up): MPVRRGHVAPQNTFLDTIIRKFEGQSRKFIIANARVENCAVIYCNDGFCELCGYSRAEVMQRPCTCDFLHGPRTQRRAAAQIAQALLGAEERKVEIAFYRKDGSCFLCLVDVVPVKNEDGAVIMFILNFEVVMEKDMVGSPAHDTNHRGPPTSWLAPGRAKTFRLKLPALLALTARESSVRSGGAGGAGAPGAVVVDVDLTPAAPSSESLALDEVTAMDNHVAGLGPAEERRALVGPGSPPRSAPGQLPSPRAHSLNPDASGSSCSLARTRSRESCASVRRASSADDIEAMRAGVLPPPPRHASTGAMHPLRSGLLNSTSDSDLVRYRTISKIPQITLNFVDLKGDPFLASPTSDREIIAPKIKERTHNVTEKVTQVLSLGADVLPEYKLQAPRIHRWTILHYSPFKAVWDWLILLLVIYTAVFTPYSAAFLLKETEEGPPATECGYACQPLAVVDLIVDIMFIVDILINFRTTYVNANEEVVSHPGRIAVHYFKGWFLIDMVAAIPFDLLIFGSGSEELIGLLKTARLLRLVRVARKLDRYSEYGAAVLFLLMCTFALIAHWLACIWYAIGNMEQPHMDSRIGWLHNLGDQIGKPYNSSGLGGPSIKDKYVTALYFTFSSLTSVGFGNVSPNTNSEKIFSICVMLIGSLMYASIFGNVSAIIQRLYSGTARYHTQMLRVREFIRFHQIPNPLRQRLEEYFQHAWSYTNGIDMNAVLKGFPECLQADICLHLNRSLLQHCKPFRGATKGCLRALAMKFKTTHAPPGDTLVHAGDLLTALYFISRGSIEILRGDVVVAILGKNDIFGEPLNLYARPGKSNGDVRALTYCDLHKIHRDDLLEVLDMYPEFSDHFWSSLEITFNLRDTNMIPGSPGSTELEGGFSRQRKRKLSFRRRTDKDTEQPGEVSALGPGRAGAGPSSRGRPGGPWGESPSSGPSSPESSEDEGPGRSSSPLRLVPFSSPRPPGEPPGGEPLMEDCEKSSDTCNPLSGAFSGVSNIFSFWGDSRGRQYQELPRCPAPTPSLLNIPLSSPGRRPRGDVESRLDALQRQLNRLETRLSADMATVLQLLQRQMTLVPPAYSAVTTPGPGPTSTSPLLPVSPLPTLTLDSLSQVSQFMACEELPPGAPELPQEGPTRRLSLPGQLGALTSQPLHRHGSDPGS

| Compound | hERG current change (%, negative = inhibition) at 1uM |
| --- | --- |
| CC1Sc2ccc(S(=O)(=O)CCC(=O)N3CCCC3)cc2NC1=O (stereo not drawn) | 11.1% |
| COc1ccccc1NC(=O)C(=O)N1CCCC1 | 13% |
| COc1ccc(S(=O)(=O)NC(C)C(=O)Nc2ccc3c(c2)OCO3)cc1OC (stereo not drawn) | 18.7% |
| COc1cc(-c2nnn(Cc3ccccc3C)n2)cc(OC)c1OC | 14.9% |
| Cc1ccnc(N2C(=O)C3C4CC(C(Br)C4Br)C3C2=O)c1 (stereo not drawn) | 14.4% |
| COc1ccc(C(C(=O)NCc2ccccc2)N(Cc2ccco2)C(=O)c2cnccn2)cc1 (stereo not drawn) | 9.23% |
| Cc1ccc(S(=O)(=O)N(C)CC(=O)OCC(=O)Nc2ccccc2)cc1 | 7.03% |
| COC(=O)C1CCCN1C(=O)C1CCCN1C(=O)CNC(=O)OCc1ccccc1 (stereo not drawn) (Cbz-Gly-Pro-Pro-OMe; configuration not given here) | 10.6% |
| COc1ccc2c(c1)C(C)=CC(C)(C)N2C(=O)CN1C(=O)CCC1=O | -0.218% |
| CCOC(=O)c1c(-c2ccccc2)csc1NC(=O)c1cc(-c2ccccc2OC)on1 | -6.23% |
| CN(C)C=O.Cc1ccc(S(=O)(=O)N(C)C)cc1NC(=S)Nc1ccc2[nH]c(=O)[nH]c2c1 | 17% |
| Cc1cc(C(=O)NC2CCCc3c2cnn3-c2ccc(C(C)(C)C)cc2)nn1C (stereo not drawn) | 16.5% |
| COc1ccccc1CNC(=O)CSc1nc(=O)n(Cc2ccncc2)c2c1CCC2 | 18.2% |
| Cn1c(CSCc2ccccc2Cl)nnc1SCC(=O)Nc1nccs1 | 2.67% |
| O=C(Nc1cccc(Cl)c1)c1cnn2cccnc12 | 12.9% |
| CCCCOC(=O)c1cc(C)nc2ccc(Br)cc12 | 9.64% |
| Cc1nnc(SCC(=O)N2CCOCC2)[nH]c1=O | 5.99% |
| Cc1ccc(S(=O)(=O)N2CCCCC2)cc1NC(=O)CN1CC=C(c2ccccc2)CC1 | -0.529% |
| COc1ccccc1CC(=O)Nc1ccc2c(c1)CCC2 | 18.2% |
| O=C(Nc1ccnc(-c2cccnc2)n1)c1ccc(Cl)cc1 | -11% |
| Cc1ccc(C)c(C(=O)COc2ccccc2[N+](=O)[O-])c1 | 17.4% |
| Cc1ccc(S(=O)(=O)N2CCCCC2C(=O)O)s1 (stereo not drawn) | 12.2% |

| Compound | hERG current change (%, negative = inhibition) at 1uM |
| --- | --- |
| Cc1ccc(C)c(NC(=S)NC(C)C(c2cccs2)N2CCOCC2)c1 (stereo not drawn) | 12.2% |
| C=CC[C@@H]1C=C[C@H](O/N=C/[C@@H](NS(=O)(=O)c2ccc(C)cc2)[C@H](C)/C=C/CC(=O)OC)[C@@H](CO)O1 | 6.46% |
| Cc1ccc(/C=N/Nc2nc3ccccc3s2)o1 | -2.87% |
| CCCC(=O)Nc1ccccc1NC(=O)c1ccc(OC(C)=O)cc1 | 6.27% |
| O=C(Nc1ccc(-c2nc3ccccc3o2)cc1)C1CCCO1 (stereo not drawn) | -5.07% |
| Cc1cc(C(=O)N/N=C/c2ccc3c(c2)OCO3)c2ccccc2n1 | 13.9% |
| Cc1ccc(C(CNS(=O)(=O)c2ccc(F)cc2)N2CCN(C)CC2)cc1 (stereo not drawn) | -18.4% |
| CCn1c(C)c(C)c2cc(C(=O)NCCN3CCCCCC3)ccc21 | -0.0068% |
| CCOC(=O)c1cn2nc(SCc3ccccc3)nc2nc1C | -1.9% |
| Cc1ccc(NC(=O)C2CCCN2C(=O)NCc2ccccc2)cc1 (stereo not drawn) | 9.84% |
| CCCCCc1nnc(NC(=O)CS(=O)(=O)Cc2ccccc2)s1 | 0.943% |
| Cc1ccc(/C=C2\SC(=S)N(CC(=O)Nc3ncc(Cc4ccccc4Cl)s3)C2=O)cc1 | -0.392% |
| COc1ccc(Cc2nnc(SCC(=O)c3ccc(OC)cc3)o2)cc1 | 14.7% |
| Cc1c(C)n(Cc2ccccc2)c2ccc(C(=O)NCCCN3CCOCC3)cc12 | 16% |
| COc1cccc(CN2CC(C(=O)N(C)CC3CCOCC3)CCC2=O)c1 (stereo not drawn) | 12.6% |
| Cn1ncc([N+](=O)[O-])c1C(=O)N/N=C/c1ccc(F)cc1 | -3.01% |
| O=S(=O)(Nc1cccc(-c2ccc3nncn3n2)c1)c1ccc(Cl)s1 | 0.287% |
| CCN(CC)S(=O)(=O)c1ccc(OC)c(NS(=O)(=O)Cc2ccccc2)c1 | 6.87% |
| O=C1N[C@@H](Cc2ccccc2)C(=O)N2[C@@H]1C[C@]1(Br)c3ccccc3N(S(=O)(=O)c3ccccc3)[C@H]21 | 16% |
| Cc1cccc(NC(=S)Nc2ccccn2)c1C | 5.09% |
| COCc1ccc(C(=O)N(C)CC2CCCN(CCc3ccc(Cl)cc3)C2)o1 (stereo not drawn) | -65.1% |
| CCCOc1ccc(-c2nc(OCC)c3ccccc3n2)cc1 | 10.3% |

| Compound | hERG current change (%, negative = inhibition) at 1uM |
| --- | --- |
| CCn1c(=NC(=O)c2cccc(N3C(=O)CCC3=O)c2)sc2c(C)ccc(OC)c21 | 23% |
| O=C(NC(=S)Nc1ccccc1N1CCOCC1)c1cccc([N+](=O)[O-])c1 | 17% |
| O=C(O)c1cc(-c2cccs2)nc2ccc(F)cc12 | 11.4% |
| CCc1ccccc1NC(=O)c1ccccc1Sc1ccc([N+](=O)[O-])cc1Cl | 3.11% |
| COc1cc(Cl)ccc1OCc1cc(C(=O)N2CC[C@@H]3CCCC[C@H]3C2)no1 | 17.2% |
| O=C(NCc1ccccn1)c1ccc(N2CCCC2)c([N+](=O)[O-])c1 | 9.04% |
| COC(=O)C(C)(C(=O)OC)c1ccccc1[N+](=O)[O-] | 11% |
| Cn1c(=O)c2cc(S(=O)(=O)NCCC(=O)NC3CCCCCC3)ccc2n(C)c1=O | 1.35% |
| COC(=O)NNC(=O)COc1ccccc1C | 7.96% |
| C=CCC(C)(NCc1ccccc1)c1ccco1.Cl (stereo not drawn) | 13.3% |
| CCN1CCN(c2ccc(S(=O)(=O)N3CCCCC3)cc2NC(=O)Cc2c(Cl)cccc2Cl)CC1 | 0.891% |
| CCOC(=O)c1c(-n2cnnn2)sc(C)c1C | -0.545% |
| COc1ccc(/C=N/NS(=O)(=O)c2ccc(C)cc2)cc1 | 9.73% |
| CCOc1ccc(/C=C/C(=O)c2ccccc2)cc1 | 12.9% |
| COc1ccc(NC(=O)CSc2n[nH]c(=O)n2C2CC2)cc1OC | 8.43% |
| CC(=O)c1sc(-c2ccccc2)cc1N | 9.14% |
| O=C(Nc1cccc2c1CCCC2)C1CCN(C(=O)NC2CCCCC2)CC1 | 7.73% |
| CC(=O)NS(=O)(=O)c1cccnc1Nc1cccc(Cl)c1C | 8.79% |
| CCOC(=O)C1(Cc2ccccc2)CCN(Cc2ccc(C3CCCCO3)s2)CC1 (stereo not drawn) | -1.26% |
| CC1CCN(C(=O)C2CCCN(S(C)(=O)=O)C2)CC1 (stereo not drawn) | 15.8% |
| Nc1ccnc(C(F)(F)F)c1C(=O)c1ccccc1 | 4.73% |
| O=C1OC(c2ccc(Cl)cc2)=N/C1=C\N1CC2CC(C1)c1cccc(=O)n1C2 (stereo not drawn) | -38.4% |

| Compound | hERG current change (%, negative = inhibition) at 1uM |
| --- | --- |
| Cc1cc(C)c(CN2CCN(C(=O)Cn3ccc(NC(=O)OCc4ccccc4)nc3=O)CC2)c(C)c1 | 2.23% |
| Fc1ccccc1CSc1nnc(-c2cccnc2)o1 | 21% |
| C#Cc1ccc([C@H]2C=C(C(=O)N3CCOCC3)O[C@@H](OCC)[C@@H]2CCCO)cc1 | 10.3% |
| CCOc1nc(NC2CCCC2)nc(N2CCC(C)CC2)n1 | 11.6% |
| CC(=O)N1c2ccc(S(=O)(=O)N3CCC(C(=O)NCc4ccccc4)CC3)cc2CC1C (stereo not drawn) | 2.71% |
| CCCCC(=O)Nc1ccc(C(=O)NNC(=S)NC(=O)c2ccccc2[N+](=O)[O-])cc1 | 11.6% |
| COc1ccc(NC(=O)CC2SC(=NCC3CCCO3)NC2=O)cc1 (stereo not drawn) | 11.9% |
| CC(C)CC(=O)Nc1nnc(SCC(=O)NCc2ccc3c(c2)OCO3)s1 | 10.4% |
| COc1ccccc1NC(=O)N1CCN(c2ccc3nncn3n2)CC1 | -9.4% |
| CCOC(=O)c1c(S(=O)(=O)NCCc2ccc(OC)c(OC)c2)c(C)n(C)c1C | 6.07% |
| COc1ccc(/C=C2\N=C(c3ccccc3)NNC2=O)cc1 | 8.64% |
| CCOC(CCNC(=O)c1cn(CC(C)C)c(=O)c2c1c1ccccc1n2C)OCC | 3.25% |
| CC1=CC(C)(C)N2C(=O)C3(C(C#N)=C(N)Oc4cc(O)ccc43)c3cccc1c32 (stereo not drawn) | 15.9% |
| CC(C)(C)OC1NS(=O)(=O)OCC1NCOC(Cl)(Cl)Cl (stereo not drawn) | 15.2% |
| Cc1cc([N+](=O)[O-])ccc1NC(=O)c1cccc(NC(=O)C(C)C)c1 | 16% |
| Cc1[nH]n(-c2ccc(Br)cc2)c(=O)c1C=Nc1ccc(S(=O)(=O)Nc2nccs2)cc1 | 14.4% |
| CN1CCN(S(=O)(=O)c2ccc(NC(=O)c3ccco3)cc2)CC1 | -6.93% |
| O=C(NCCc1nc(-c2ccccc2)no1)c1ccccc1 | 1.15% |
| Cc1ccc(CNc2ncc(-c3ccccc3)n2C)o1.O=C(O)C(=O)O | 1.34% |
| COc1ccccc1NC(=O)CCC(=O)OCc1cccc([N+](=O)[O-])c1 | 16% |
| CC(C)(C)C(=O)Cn1c(=O)n(CC2CCCO2)c(=O)c2ccccc21 (stereo not drawn) | -0.876% |
